Experimental data: PubChem BioAssay (Tox21)
Several values for one entry are separate records, joined by “and”; a condition that tells them apart may be missing. Equal values may be shown once. Inconclusive results, whose numbers are uncertain, are shown with a selection of clear calls. Where a call stands in place of a potency, no number is given. For some assays here: Potencies beside an inconclusive call are fits to weak or partial responses and may not hold up. A structure can be active in one record and inactive in another. Activity calls are given as the source filed them. Unless noted, calls come from the whole dose curve; as a rule, active = well fitted curve in the direction sought with a large enough effect in the repeat runs; inconclusive = weak or mixed curves; inactive = no such curve, though single readings can be large; an effect the other way counts as inactive or inconclusive.

Tests used:
[1] = A CellTox Green Cytotoxicity Assay to monitor cytotoxicity in HepG2 cells - 24 hour (AID 1224878); note: nearly all actives have a fitted effect of over 45% in size
Method in brief: (§1)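 Real-time, homogeneous cytotoxicity readout: dead-cell DNA staining by CellTox Green in HepG2 monolayers, fluorescence measured at timed intervals up to 40 h of continuous compound exposure.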

[2] = qHTS assay to identify small molecule antagonists of the thyroid receptor (TR) signaling pathway (AID 743065); note: nearly all actives have a fitted effect of over 55% in size; note: potency is the fitted concentration of half-maximal effect
Method in brief: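 GH3.TRE-Luc rat pituitary cells (two TREs driving luciferase) were dosed with compound, then stimulated with 1 nM T3 (final) for 23.5 h at 37 C. ONE-Glo luminescence was the read-out, with CellTiter-Fluor fluorescence as the cytotoxicity counter-screen.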

[3] = target: Estrogen receptor (Homo sapiens) (UniProt P03372); assay: qHTS assay to identify small molecule agonists of the estrogen receptor alpha (ER-alpha) signaling pathway using the BG1 cell line (AID 743079); conditions: BG1Luc4E2 cells, ERE-luciferase agonist, 22 h; activation: at 70.3 µM (top of the series) unless noted; note: nearly all actives have a fitted effect of over 20% in size; note: potency is the fitted concentration of half-maximal effect
UniProt P03372, sequence (P03372 whole entry, looked up): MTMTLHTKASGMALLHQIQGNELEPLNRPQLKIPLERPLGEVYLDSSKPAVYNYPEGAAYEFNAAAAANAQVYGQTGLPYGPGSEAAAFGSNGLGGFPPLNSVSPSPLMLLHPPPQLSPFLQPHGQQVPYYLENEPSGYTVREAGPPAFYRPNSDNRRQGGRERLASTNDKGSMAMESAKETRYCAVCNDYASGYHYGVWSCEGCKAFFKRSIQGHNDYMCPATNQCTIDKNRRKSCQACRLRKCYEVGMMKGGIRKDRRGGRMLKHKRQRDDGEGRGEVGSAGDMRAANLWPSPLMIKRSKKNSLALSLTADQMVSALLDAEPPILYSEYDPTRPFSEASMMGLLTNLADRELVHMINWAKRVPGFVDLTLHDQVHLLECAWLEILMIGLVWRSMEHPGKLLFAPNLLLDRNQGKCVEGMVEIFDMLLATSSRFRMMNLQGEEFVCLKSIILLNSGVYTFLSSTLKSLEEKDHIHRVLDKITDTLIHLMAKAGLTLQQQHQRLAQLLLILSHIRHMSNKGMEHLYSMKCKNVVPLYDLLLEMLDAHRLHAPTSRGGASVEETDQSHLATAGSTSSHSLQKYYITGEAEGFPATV

[4] = A CellTox Green Cytotoxicity Assay to monitor cytotoxicity in HEK293 cells - 8 hour (AID 1224884); note: nearly all actives have a fitted effect of over 35% in size; note: potency is the fitted concentration of half-maximal effect
Method in brief: (§2)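 Cytotoxicity was tracked continuously in HEK293 cells by a DNA-binding dye excluded from viable cells. Compounds were transferred in DMSO 5 h after seeding; fluorescence was recorded at intervals up to 40 h.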

[5] = target: Voltage-gated inwardly rectifying potassium channel KCNH2 (Homo sapiens) (UniProt Q12809); assay: Human Ether-a-go-go-Related Gene (hERG) channel small molecule antagonists: fluorescence cell-based qHTS assay (AID 1671200); note: nearly all actives have a fitted effect of over 50% in size; note: potency is the fitted concentration of half-maximal effect
UniProt Q12809, sequence (Q12809 whole entry, looked up): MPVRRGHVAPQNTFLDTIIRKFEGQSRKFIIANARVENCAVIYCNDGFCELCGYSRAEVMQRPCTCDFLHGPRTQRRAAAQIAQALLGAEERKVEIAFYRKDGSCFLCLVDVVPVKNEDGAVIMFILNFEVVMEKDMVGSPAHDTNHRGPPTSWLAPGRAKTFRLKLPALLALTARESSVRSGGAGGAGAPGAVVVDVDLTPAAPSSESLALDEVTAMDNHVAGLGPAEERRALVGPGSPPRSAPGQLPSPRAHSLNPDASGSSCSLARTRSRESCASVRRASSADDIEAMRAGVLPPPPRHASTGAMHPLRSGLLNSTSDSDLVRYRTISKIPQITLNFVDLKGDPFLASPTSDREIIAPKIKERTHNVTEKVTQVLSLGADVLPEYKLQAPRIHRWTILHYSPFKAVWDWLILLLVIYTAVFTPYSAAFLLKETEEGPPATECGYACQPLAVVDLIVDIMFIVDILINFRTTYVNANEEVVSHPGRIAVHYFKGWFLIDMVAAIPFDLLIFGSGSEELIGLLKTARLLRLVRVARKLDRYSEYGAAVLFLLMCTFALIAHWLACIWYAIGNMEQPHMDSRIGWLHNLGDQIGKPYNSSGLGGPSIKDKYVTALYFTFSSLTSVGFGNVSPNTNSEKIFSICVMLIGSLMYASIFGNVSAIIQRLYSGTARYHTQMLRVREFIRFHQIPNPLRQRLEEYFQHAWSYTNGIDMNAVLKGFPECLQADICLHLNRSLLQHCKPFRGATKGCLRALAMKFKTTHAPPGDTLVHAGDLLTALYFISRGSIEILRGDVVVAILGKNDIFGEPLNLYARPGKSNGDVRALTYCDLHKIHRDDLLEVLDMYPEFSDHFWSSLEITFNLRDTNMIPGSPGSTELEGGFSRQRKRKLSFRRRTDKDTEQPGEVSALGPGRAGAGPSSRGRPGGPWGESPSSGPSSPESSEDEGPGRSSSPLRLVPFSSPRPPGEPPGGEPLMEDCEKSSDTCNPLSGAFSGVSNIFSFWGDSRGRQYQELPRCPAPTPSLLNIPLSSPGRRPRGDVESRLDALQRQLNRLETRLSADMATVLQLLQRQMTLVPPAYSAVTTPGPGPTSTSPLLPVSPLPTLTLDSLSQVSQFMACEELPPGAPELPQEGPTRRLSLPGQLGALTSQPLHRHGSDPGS
Method in brief: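 In this thallium-flux screen, overnight-cultured U2OS cells bearing the channel are dye-loaded in darkness for an hour, rested 10 min at room temperature, and then monitored kinetically at 480/540 nm for two minutes post-stimulus.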

[6] = qHTS assay to identify small molecule antagonists of the estrogen receptor alpha (ER-alpha) signaling pathway using the BG1 cell line - cell viability counter screen (AID 743081); conditions: BG1Luc4E2 viability, CellTiter-Fluor, 22 h; activity change, negative = cytotoxicity: at 70.3 µM (top of the series);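 note: compound given together with 17beta-estradiol as the ER stimulus; nearly all actives have a fitted effect of over 45% in size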; note: potency is the fitted concentration of half-maximal effect
[7] = qHTS assay to identify small molecule antagonists of the estrogen related receptor (ERR) signaling pathway from Tox21 library - cell viability counter screen (AID 1224834); note: nearly all actives have a fitted effect of over 30% in size; note: potency is the fitted concentration of half-maximal effect
Method in brief: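 Cytotoxicity of test substances is gauged in the same ERR cells used for the antagonist screen, after 17.5 h of compound treatment at 37 C, by CellTiter-Fluor fluorescence measured after 30 min.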

[8] = qHTS RealTime-Glo MT Cell Viability Assay in HEK293 cells - 8 hour (AID 1224887); note: nearly all actives have a fitted effect of over 50% in size; note: potency is the fitted concentration of half-maximal effect; for activity change, negative = cytotoxicity: top concentration of the series differs between compounds
Method in brief: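 Nonlytic bioluminescent viability monitoring. HEK293 at 600 cells/well with reagent; 5 h settle; compound transfer by pintool; plates held at 37 C and read at set time points.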

[9] = qHTS assay to identify small molecule antagonists of the retinoid acid receptor (RAR) signaling pathway - cell viability counter screen (AID 1159551); note: nearly all actives have a fitted effect of over 35% in size
Method in brief: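 Cytotoxicity counter screen in C3RL4 cells: 6 h compound exposure with 1 uM retinol (final), viability from cellular ATP by luminescence.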

[10] = target: Luciferin 4-monooxygenase (Photinus pyralis) (UniProt P08659); assay: qHTS assay to identify small molecule inhibitors of firefly luciferase (AID 1224835); note: nearly all actives have a fitted effect of over 25% in size; note: potency is the fitted concentration of half-maximal effect
UniProt P08659, sequence (P08659 whole entry, looked up): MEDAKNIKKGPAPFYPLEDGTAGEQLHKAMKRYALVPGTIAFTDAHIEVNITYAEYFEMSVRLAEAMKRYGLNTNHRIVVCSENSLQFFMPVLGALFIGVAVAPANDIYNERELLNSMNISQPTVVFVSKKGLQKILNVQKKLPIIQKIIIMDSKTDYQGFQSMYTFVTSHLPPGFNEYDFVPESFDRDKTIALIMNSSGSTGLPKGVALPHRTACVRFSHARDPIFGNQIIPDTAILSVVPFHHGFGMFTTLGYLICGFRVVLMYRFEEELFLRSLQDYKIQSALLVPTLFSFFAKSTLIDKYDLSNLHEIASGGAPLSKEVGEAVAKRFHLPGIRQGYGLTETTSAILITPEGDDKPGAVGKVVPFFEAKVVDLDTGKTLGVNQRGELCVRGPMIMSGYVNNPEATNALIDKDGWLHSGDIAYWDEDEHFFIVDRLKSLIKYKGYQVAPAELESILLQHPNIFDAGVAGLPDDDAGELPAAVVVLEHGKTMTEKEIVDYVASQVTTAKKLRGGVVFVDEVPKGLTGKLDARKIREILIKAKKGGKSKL
Method in brief: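 Biochemical qHTS: compounds run as interplate titrations against purified firefly enzyme, with D-luciferin and ATP each at its KM concentration. Light output recorded by CCD imaging.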

[11] = target: Acetylcholinesterase (Homo sapiens) (UniProt P22303); assay: Acetylcholinesterase (AChE) small molecule antagonists: fluorescence cell-based qHTS assay (AID 1347398; calls by dose curve; note: nearly all actives have a fitted effect of over 50% in size; note: potency is the fitted concentration of half-maximal effect); conditions: Potency: AChE activity
UniProt P22303, sequence (P22303 whole entry, looked up): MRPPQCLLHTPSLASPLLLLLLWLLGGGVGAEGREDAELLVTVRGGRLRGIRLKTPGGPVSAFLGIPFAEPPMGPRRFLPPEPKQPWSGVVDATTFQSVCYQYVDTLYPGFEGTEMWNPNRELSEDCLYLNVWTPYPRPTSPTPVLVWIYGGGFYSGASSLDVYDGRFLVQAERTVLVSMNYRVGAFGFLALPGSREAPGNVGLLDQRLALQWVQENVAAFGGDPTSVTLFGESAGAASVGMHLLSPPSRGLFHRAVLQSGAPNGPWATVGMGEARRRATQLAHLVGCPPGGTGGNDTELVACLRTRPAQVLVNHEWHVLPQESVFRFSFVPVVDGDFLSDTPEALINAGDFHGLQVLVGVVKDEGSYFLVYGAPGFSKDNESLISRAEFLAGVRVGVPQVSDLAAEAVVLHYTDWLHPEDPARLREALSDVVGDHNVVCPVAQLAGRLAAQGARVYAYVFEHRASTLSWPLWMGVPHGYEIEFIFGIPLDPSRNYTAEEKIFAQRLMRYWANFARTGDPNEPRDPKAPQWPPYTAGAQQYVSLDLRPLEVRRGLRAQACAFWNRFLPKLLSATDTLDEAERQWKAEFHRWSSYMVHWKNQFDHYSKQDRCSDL
Method in brief: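 Endogenous acetylcholinesterase of SH-SY5Y neuroblastoma cells is measured in situ. After overnight attachment and 30 min compound exposure, cells receive acetylthiocholine and Thiolite Green; fluorescence is read after 40 min at room temperature.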

[12] = target: Progesterone receptor (Homo sapiens) (UniProt P06401); assay: qHTS assay to identify small molecule agonists of the progesterone receptor (PR) signaling pathway (AID 1346784; calls by dose curve; note: nearly all actives have a fitted effect of over 30% in size; note: potency is the fitted concentration of half-maximal effect); conditions: PR-UAS-bla HEK293T, beta-lactamase FRET ratio, 16 h; activation: at 92.4 µM (top of the series) unless noted
UniProt P06401, sequence (P06401 whole entry, looked up): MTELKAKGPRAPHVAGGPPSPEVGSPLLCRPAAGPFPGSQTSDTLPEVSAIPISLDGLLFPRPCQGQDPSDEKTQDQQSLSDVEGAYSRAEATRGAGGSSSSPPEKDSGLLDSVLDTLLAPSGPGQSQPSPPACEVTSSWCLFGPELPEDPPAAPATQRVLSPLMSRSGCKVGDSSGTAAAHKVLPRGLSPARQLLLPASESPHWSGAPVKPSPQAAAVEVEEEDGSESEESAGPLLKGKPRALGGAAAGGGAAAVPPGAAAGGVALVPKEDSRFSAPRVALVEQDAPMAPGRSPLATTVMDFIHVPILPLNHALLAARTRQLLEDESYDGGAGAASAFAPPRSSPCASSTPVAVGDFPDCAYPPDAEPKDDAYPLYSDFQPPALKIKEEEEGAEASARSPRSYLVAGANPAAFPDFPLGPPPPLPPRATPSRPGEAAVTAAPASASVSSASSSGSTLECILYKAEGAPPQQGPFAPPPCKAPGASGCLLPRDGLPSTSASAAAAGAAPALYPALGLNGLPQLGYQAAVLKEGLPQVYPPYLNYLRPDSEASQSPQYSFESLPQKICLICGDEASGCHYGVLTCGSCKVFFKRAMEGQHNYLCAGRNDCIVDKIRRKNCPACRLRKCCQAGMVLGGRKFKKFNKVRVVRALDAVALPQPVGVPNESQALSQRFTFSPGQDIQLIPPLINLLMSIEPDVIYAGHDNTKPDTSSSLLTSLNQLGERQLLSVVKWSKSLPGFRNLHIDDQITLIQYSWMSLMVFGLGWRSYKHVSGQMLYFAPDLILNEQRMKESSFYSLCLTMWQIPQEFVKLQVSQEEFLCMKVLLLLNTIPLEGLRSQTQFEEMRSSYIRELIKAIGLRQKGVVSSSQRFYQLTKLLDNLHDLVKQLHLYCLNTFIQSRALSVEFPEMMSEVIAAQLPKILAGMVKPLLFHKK
Method in brief: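 Reporter assay, GripTite PR-UAS-bla HEK 293T cells: 16 hr exposure to DMSO-dissolved compounds at 37C, 5% CO2, in steroid-depleted (2% charcoal-stripped FBS) medium; beta-lactamase measured by FRET fluorescence.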

[13] = qHTS assay to identify small molecule agonists of H2AX (AID 1224845; active = well fitted activation curve with a large enough effect in the signal ratio in the repeat runs, not every such curve was filed as active; inconclusive = weak or mixed curves; the % refers to the signal ratio; note: potency is the fitted concentration of half-maximal effect); conditions: CHO-K1 phospho-H2AX Ser139 HTRF, 3 h; activation (H2AX phosphorylation): at 154 µM (top of the series) unless noted
Method in brief: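 Wild-type CHO-K1 cells, plated overnight, exposed 3hr at 37C to 15 concentrations (0.76% DMSO final). Lysed, then HTRF anti-pH2AX (S139) cryptate and anti-H2AX-d2 antibodies, 24 hr room temperature; 665/620 nm emission read.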

[14] = A CellTox Green Cytotoxicity Assay to monitor cytotoxicity in HepG2 cells - 16 hour (AID 1224876); note: nearly all actives have a fitted effect of over 45% in size
Method in brief: as §1

[15] = target: Acetylcholinesterase (Homo sapiens) (UniProt P22303); assay: Acetylcholinesterase (AChE) small molecule antagonists: colormetric cell-based qHTS assay (AID 1347395; calls by dose curve; note: nearly all actives have a fitted effect of over 30% in size; note: potency is the fitted concentration of half-maximal effect)
Method in brief: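 After overnight attachment at 37 C, SH-SY5Y cells get 30 min compound exposure; detection cocktail (acetylthiocholine, DTNB) then incubates 90 min at 37 C, and absorbance reflects AChE-generated thiocholine.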

[16] = A CellTox Green Cytotoxicity Assay to monitor cytotoxicity in HepG2 cells - 40 hour (AID 1224879); note: nearly all actives have a fitted effect of over 40% in size
Method in brief: as §1

[17] = A CellTox Green Cytotoxicity Assay to monitor cytotoxicity in HEK293 cells - 32 hour (AID 1224881); note: nearly all actives have a fitted effect of over 40% in size; note: potency is the fitted concentration of half-maximal effect
Method in brief: as §2

[18] = A CellTox Green Cytotoxicity Assay to monitor cytotoxicity in HepG2 cells - 32 hour (AID 1224883); note: nearly all actives have a fitted effect of over 50% in size; note: potency is the fitted concentration of half-maximal effect
Method in brief: as §1

[19] = A CellTox Green Cytotoxicity Assay to monitor cytotoxicity in HEK293 cells - 40 hour (AID 1224871); note: nearly all actives have a fitted effect of over 45% in size
Method in brief: as §2

[20] = target: Cytochrome P450 3A4 (Homo sapiens) (UniProt P08684); assay: Cytochrome P450 Family 3 Subfamily A Member 4 (CYP3A4) small molecule antagonists: luciferase reporter qHTS assay (AID 1671201)
UniProt P08684, sequence (P08684 whole entry, looked up): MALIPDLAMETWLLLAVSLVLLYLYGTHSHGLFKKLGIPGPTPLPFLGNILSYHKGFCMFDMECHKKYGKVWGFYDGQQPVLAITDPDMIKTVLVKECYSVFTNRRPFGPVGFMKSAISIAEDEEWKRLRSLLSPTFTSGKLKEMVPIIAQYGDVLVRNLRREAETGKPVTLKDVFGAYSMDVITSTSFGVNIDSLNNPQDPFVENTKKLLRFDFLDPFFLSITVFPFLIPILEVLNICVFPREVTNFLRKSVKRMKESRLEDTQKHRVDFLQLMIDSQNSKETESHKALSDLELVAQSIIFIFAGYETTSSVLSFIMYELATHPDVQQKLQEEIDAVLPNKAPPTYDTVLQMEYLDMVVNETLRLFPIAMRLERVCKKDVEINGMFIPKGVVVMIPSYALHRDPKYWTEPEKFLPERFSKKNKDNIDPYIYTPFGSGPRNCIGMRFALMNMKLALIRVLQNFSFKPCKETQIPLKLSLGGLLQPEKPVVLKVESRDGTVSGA
Method in brief: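 CYP3A4 activity was followed with a P450-Glo proluciferin substrate. Test compounds in DMSO were preincubated 10 min; NADPH regeneration then ran 1 h, and light output was read 20 min after detection reagent.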
Tags give direction and shape of the fitted curve or compound fluorescence and quenching.

N#CN=C(N)N
Potency [1]: inactive

CN(N=O)C(N)=O
Potency [2]: inactive

Cc1ncc2n1-c1ccc(Cl)cc1C(c1ccccc1F)=NC2
Potency [2]: inconclusive: 29.8 µM [inhibitor, partial curve]
Potency [3]: inconclusive: 11.9 µM [inhibitor, partial curve]
Potency [1]: inactive
Potency [4]: inconclusive: 2.13 µM [activator, partial curve, poor fit]
Potency [5]: inactive

CCN(CCO)CCn1c(Cc2ccccc2)nc2c1c(=O)n(C)c(=O)n2C
Potency [6]: inconclusive: 13.3 µM [cytotoxic, single point]
Potency [7]: inactive
Potency [8]: inactive

CCC(C)Cl (stereo not drawn)
Potency [9]: inactive
Potency [10]: inactive

CC(C)NCC(O)c1ccc([N+](=O)[O-])cc1 (stereo not drawn)
Potency [6]: inactive
Potency [11]: inactive
Potency [5]: inconclusive: 19 µM [inhibitor, partial curve]

Cc1cccc([N+](=O)[O-])c1
Potency [12]: inconclusive: 27.4 µM [rising, single point]

COP(=O)(NC(C)=O)SC (stereo not drawn)
Potency [13]: inactive

CCC(=O)c1ccccc1
Potency [14]: inactive
Potency [12]: inactive

N#Cc1ccccc1Cl
Potency [15]: inactive

CCCCCCCCCCBr
Potency [13]: inactive
Potency [16]: inactive

O=[N+]([O-])c1ccc(Cl)cc1
Potency [17]: inactive
Potency [18]: inconclusive: 0.155 µM [activator, partial curve, poor fit]
Potency [8]: inactive

O=C(Nc1ccc(F)cc1F)c1cccnc1Oc1cccc(C(F)(F)F)c1
Potency [13]: inconclusive: 124 µM [fluorescent]
Potency [1]: inactive
Potency [17]: inconclusive: 34 µM [activator, single point]
Potency [4]: inconclusive: 8.53 µM [activator, full curve, poor fit]

Brc1c(Br)c(Br)c(Br)c(Br)c1Br
activity change, negative = cytotoxicity [6]: inactive: 9.59% [at 8.47 µM]
viability change, negative = cytotoxic [7]: inactive: 3.18% [at 8.39 µM]
Potency [13]: inconclusive: 2.46 µM [rising, partial curve]
Potency [8]: inconclusive: 3 µM [rising, single point]
Potency [12]: inconclusive: 0.297 µM [full curve]

CS(=O)(=O)Cl
Potency [17]: inactive
Potency [4]: inactive

CCC1(c2ccccc2)CCC(=O)NC1=O (stereo not drawn)
Potency [6]: inconclusive: 33.5 µM [rising, partial curve, poor fit]
Potency [7]: inactive
Potency [14]: inactive

O=C(O)C(F)(F)C(F)(F)C(F)(F)C(F)(F)C(F)(F)F
Potency [19]: inactive
Potency [15]: inconclusive: 71 µM [inhibitor, partial curve]

Oc1cccc(-c2ccccc2)c1
Potency [8]: inconclusive: 61.6 µM [cytotoxic, partial curve, poor fit]
Potency [20]: inconclusive: 63.3 µM [inhibitor, partial curve]

CC(=O)[O-].CC(=O)[O-].CC(=O)[O-].[Cr+3]
Potency [6]: inactive
Potency [14]: inactive

CC(N)=S
Potency [13]: inactive

Cc1ccc(C(=O)Cl)cc1
Potency [10]: inconclusive: 79.6 µM [inhibitor, single point]
Potency [20]: inconclusive: 89.4 µM [inhibitor, partial curve, poor fit]

CC(CCc1ccccc1)NC(C)C(O)c1ccc(O)cc1 (stereo not drawn)
Potency [2]: inconclusive: 18.8 µM [inhibitor, partial curve]

O=c1c2ccccc2c(=O)c2c1cc(Cl)c1[nH]c3c([nH]c12)c(Cl)cc1c(=O)c2ccccc2c(=O)c13
Potency [2]: inconclusive: 34.4 µM [inhibitor, partial curve, poor fit]
Potency [13]: inconclusive: 113 µM [falling, single point]
Potency [1]: inactive
Potency [16]: inactive

O=[N+]([O-])c1ccccc1-c1ccccc1
activation [3]: inconclusive: 6.27% [phenotype inactive]
Potency [13]: inactive

NC(=O)CCl
Potency [7]: inconclusive: 61.1 µM [cytotoxic, single point]

C[N+](C)(C)Cc1ccccc1
Potency [3]: inconclusive: 43.2 µM [activator, partial curve]
Potency [14]: inactive
Potency [17]: inactive
Potency [20]: inconclusive: 22.3 µM [inhibitor, full curve, poor fit]

CCCCSP(=O)(SCCCC)SCCCC
Potency [18]: inactive
Potency [15]: inconclusive: 31 µM [inhibitor, partial curve] and inconclusive: 28.3 µM [inhibitor, partial curve]
Potency [11]: inconclusive: 4.91 µM [inhibitor, full curve] and inconclusive: 11.2 µM [inhibitor, full curve]
Potency [5]: inconclusive: 42.6 µM [inhibitor, partial curve]
Potency [20]: inconclusive: 21.9 µM [inhibitor, full curve] and inconclusive: 20 µM [inhibitor, partial curve]

[Cl-].[Cl-].[Cl-].[Fe+3]
Potency [7]: inconclusive: 0.243 µM [cytotoxic, single point]
Potency [13]: inactive
Potency [4]: inconclusive: 61.6 µM [activator, single point]
